# Read-outs that look alike come from different tables or passages of the source.
# Legend:
# MM.1S cells [1] = assay: Cell adhesion-mediated drug resistance (CAM-DR), MM.1S cells on fibronectin, MTT; type: cell-based, Human; conditions: doxorubicin 100-200 ng/ml 24 h; wells with versus without fibronectin
# [2] = test system: MM cells isolated from a patient who had relapsed following treatment with PS-341; conditions: MM cells of patient relapsed after PS-341
# MM.1S cells [3] = test system: MM.1S cells
smiles,measurement,setting,value
COc1cccc2c1C(=O)c1c(O)c3c(c(O)c1C2=O)C[C@@](O)(C(=O)CO)C[C@@H]3O[C@H]1C[C@H](N)[C@H](O)[C@H](C)O1 [doxorubicin],Sensitivity of MM.1S cells to doxorubicin with fibronectin,MM.1S cells [1],less sensitive
same,Sensitivity to doxorubicin monotherapy in vitro,[2],low sensitivity
same,LD50 for doxorubicin in MM.1S cells,MM.1S cells [3]; in the absence of PS-341,150 nM
same,LD50 for doxorubicin in MM.1S cells,MM.1S cells [3]; in the presence of PS-341 (2 nM),26 nM
